Source: PubChem BioAssay AID686971 (National Center for Advancing Translational Sciences (NCATS), 2013)
The campaign covered roughly 360,000 compounds. About 7,500 (2.1%) were called active. This list was built around the results that the source calls inconclusive (neither active nor inactive); the mix of calls is not that of the screen. Calls come from the whole dose curve; as a rule, active = well fitted cell-killing curve with a large enough effect; inconclusive = small, poorly fitted or top-dose-only effect, or effect the other way, or another doubt; inactive = no such curve, though single readings can be large or run the other way. Potencies of inconclusive entries are left out as doubtful fits.

Assay: qHTS for induction of synthetic lethality in tumor cells producing 2HG: qHTS for the HT-1080-IDH1KD cell line;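 for activity, negative = toxicity: 0% = DMSO wells and -100% = cell-free medium wells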
Conditions: HT-1080 IDH1 knockdown viability, ATP luminescence, 48 h; activity, negative = toxicity: at 46.1 µM (top of the series) unless noted
In short: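 Knockdown cells (IDH1KD HT-1080) received compounds 2 h after plating at 750 cells/well and were kept 48 h at 37 °C in 5% FBS RPMI. A CellTiter-Glo luminescence read gave % activity for curve fitting.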
Potency is the fitted concentration of half-maximal effect; tags give direction and shape of the fitted curve.

Structure (SMILES) | Potency | activity, negative = toxicity
COc1ccccc1CN1C[C@@H]2C[C@@H](c3ccc(Cl)cc3)N3CCC[C@@]23C1=O | inconclusive [cytotoxic, single point] | 
O=C1CC(c2ccc(Cl)cc2)SC(N(c2ccccc2)c2ccccc2)=N1 (stereo not given) | inconclusive [cytotoxic, single point] | 
COCc1nnc(NC(=O)c2c(-c3c(Cl)cccc3Cl)noc2C)s1 | active: 20.6 µM | 
CCOc1ccc2nc(N3CCCCCC3)sc2c1 | inconclusive [cytotoxic, single point] | 
COc1ccc(C(=O)NCCc2nnc(SCC(=O)Nc3ccccc3F)n2C)cc1 | inactive | 
O=[N+]([O-])c1cccc(-c2nc(-c3cccs3)c(-c3cccs3)[nH]2)c1 | inconclusive [cytotoxic, single point] | 
O=C(Cn1nnc(-c2ccccc2)n1)NCC(=O)Nc1ccc(F)c(F)c1F | inactive | 
O=C(CC(=O)Nc1ccc(Cl)cc1)N/N=C\c1cccc(F)c1 | inactive | 
O=C(O)c1nn(CCOc2c(Cl)cccc2Cl)c(=O)c2ccccc12 |  | inconclusive: -20.3% [cytotoxic]
O=C(NC12CC3CC(CC(C3)C1)C2)c1ccc(-c2ccccc2Cl)o1 | inconclusive [cytotoxic, partial curve] | 
COc1ccc(F)cc1C(=O)C1CCCN(Cc2ccc(Sc3nncn3C)o2)C1 (stereo not given) | inactive | 
CCC(C)c1ccc(OCC(=O)Nc2cccc(C(=O)Nc3ccc(C(=O)O)cc3)c2)cc1 (stereo not given) | inconclusive [cytotoxic, single point] | 
CNc1cnc(-c2ccc(F)c(F)c2F)cn1 | inactive | 
O=C(N/N=C/c1c[nH]c2ccccc12)c1cc(-c2cccc3ccccc23)n[nH]1 | active: 8.2 µM | 
CC(C)=CCc1c(O)ccc(C(=O)Cc2ccccc2)c1O | inconclusive [cytotoxic, single point] | 
O=C(NC1CCCC1)c1cc2ccccc2o1 | inconclusive [rising, single point] | 
c1ccc(CSc2ccc(-c3ccccn3)nn2)cc1 | inconclusive [cytotoxic, partial curve] | 
Cn1c(=O)[nH]c(=O)c2c1nc(CN1CCN(c3cccc(Cl)c3)CC1)n2CCc1ccccc1 | inconclusive [cytotoxic, single point] | 
O=C(CSc1nnc(-c2ccco2)o1)N1CCN(c2ccccc2)CC1 | inconclusive [rising, partial curve] | 
COc1cccc(/C=C/C(=C2\C(=O)N(c3ccccc3)N=C2C)c2ccc(Br)cc2)c1OC | inactive | 
